Screen size: about 150,000 compounds; about 540 (0.36%) showed an effect of 50% or more. The list shows a part of the results.

The values that follow come from ChEMBL document CHEMBL4888484, “Replenishing the malaria drug discovery pipeline: Screening and hit evaluation of the MMV Hit Generation Library 1 (HGL1) against asexual blood stage Plasmodium falciparum ,using a nano luciferase reporter read-out” (2022).

The experiment concerns Plasmodium falciparum. The experiment in a line: Primary screen in NF54 nanoGlo assay, in single point, at 2uM, 72h; a lower Z score goes with more inhibition. Format: functional, Erythrocyte. Particulars: timepoint 72 hour.
As to `O=C(NCc1cn(-c2cccnc2)nn1)c1cccc(Oc2ccc(F)cc2)c1`, the % Inhibition (in general, the drop in the measured response relative to a control, in per cent) is 2% and the Z score was -0.24.
Consider `Cc1nnc(N[C@H]2c3ccccc3C[C@H]2O)c(C#N)c1C`, for which the “% Inhibition” value was -3% and the Z score came out at 0.38.
For `CC(C)N1CC(NC(=O)NCC(O)c2ccccc2F)CC1=O` (stereo not drawn) the same measures were -18% and 1.52.
`Cc1ccc(C(=O)NCc2ccccn2)s1`: the “% Inhibition” value is reported as -3% and the Z score came to 0.38.
For `COc1c(C)cc(CN[C@@H](C)c2nnc3n2CCCCC3)cc1C` the same measures were 2% and -0.44.
The like results for `CN(C[C@H]1CCCCO1)C(=O)Cn1ccc2ccccc2c1=O` were, in that order, -11% and 1.07.
The like results for `CN(C[C@H]1CCCCN1C)C(=O)c1csc(N)n1` were, in that order, -8% and 1.05.
Take `COc1ccc(-c2noc(-c3csc(CCN)n3)n2)cc1OC`: the “% Inhibition” value is given as -11% and the Z score amounted to 1.93.
The like results for `COc1cccc(-c2nnc(NCc3cccc(C#N)c3)o2)c1OC` were, in that order, -16% and 2.29.
Turning to `CCOC(=O)C1CCCN(C2CCN(C(=O)CCC3(Cc4ccc(C)cc4)CCC(=O)N3)CC2)C1` (stereo not drawn), the “% Inhibition” value is reported as -5% and the Z score was 0.68.
`Cc1ccc(C)n1CCC(=O)NC[C@@H]1CCCN2CCCC[C@H]12`: the “% Inhibition” value is given as -7% and the Z score was found to be 0.85.
The like results for `COCCn1c(N)c(N(CCCOc2ccccc2)Cc2ccccc2)c(=O)[nH]c1=O` were, in that order, -10% and 2.
The like results for `CCOC(=O)C[C@](C)(NCCC1OCCCO1)c1ccccc1` were, in that order, 2% and -0.34.
For `O=C(Cn1ccnc1-c1ccnc(N2CCCC2)c1)NC1CCCCC1` the same measures were -6% and 0.9.
`COC(C(=O)N(CC1CCCO1)c1ccc(Br)cc1)C1CCOC1` (stereo not drawn): the “% Inhibition” value is reported as -11% and the Z score amounted to 2.15.
For `Cn1cc(C#N)c(NS(=O)(=O)CC2CCCC2)n1` the same measures were -8% and 1.59.
Regarding `Cc1cnn(CCc2nc(CC(C)C)nn2C(C)C)c1`, the “% Inhibition” value is on record as 2% and the Z score is reported as -0.4.
The like results for `Cc1c(C(=O)Nc2nc3c(s2)Cc2ccccc2-3)ccc2cncn12` were, in that order, -21% and 2.57.
For `Cc1cc(-c2cc(NC(=O)COc3cccc(C)c3C)n([C@H]3CCS(=O)(=O)C3)n2)ccc1OC(C)C` the same measures were 6% and -0.85.
For the compound `CN1[C@@H]2CCN(C(=O)c3cc(F)ccc3F)C[C@@]2(C(=O)N2CCCC2)CCS1(=O)=O`, the “% Inhibition” value was -14% and the Z score amounted to 1.95.
For `Cc1nc(C)c(CNC(=O)c2c(O)cccc2O)s1` the same measures were -14% and 1.91.
The like results for `CCn1nc(C)c(-c2c[nH]c([C@H]3CC(=O)N(C4CCCC4)C3)n2)c1C` were, in that order, -9% and 1.17.
In the case of `Cc1nnc(CN2CCCC2C2CCCC2O)s1` (stereo not drawn), the “% Inhibition” value is reported as -8% and the Z score is reported as 1.24.
As to `COc1ccc(NC(=O)Cn2nc(Nc3ccccc3)c(S(=O)(=O)c3ccccc3)c2N)cc1OC`, the “% Inhibition” value is recorded as -10% and the Z score was found to be 1.24.
